Measurements taken from US20130130922A1, “ANALYSIS OF METHYLATION SITES” (Centre for Addiction and Mental Health, priority 2011, published 2013).

System: DNA
Test: Transalkylation activity of engineered MTases with synthetic AdoMet analogs
Details: double-alanine mutant vs original His6 tagged variant
Text: The other two MTases, M.HpaII and M.SssI, were subcloned as His6-tagged variants, and the purification procedures for obtaining AdoMet-free enzymes were established. In the second step, appropriate changes were produced, by site-directed mutagenesis, in the HpaII (Q104A/N335A) and SssI (Q142A/N370A) MTases, and the double-alanine mutants were obtained in a similar fashion.
The analysis was done as described above.

B1: HpaII (Q104A/N335A): His6-tagged M.HpaII C5 DNA methyltransferase (CCGG target site) double-alanine mutant Q104A/N335A (protein, UniProt P15446 1-358, looked up, variant Q104A N335A)
Type II methyltransferase …: MKDVLDDNLLEEPAAQYSLFEPESNPNLREKFTFIDLFAGIGGFRIAMQNLGGKCIFSSEWDEQAQKTYEANFGDLPYGDITLEETKAFIPEKFDILCAGFPCAAFSIAGKRGGFEDTRGTLFFDVAEIIRRHQPKAFFLENVKGLKNHDKGRTLKTILNVLREDLGYFVPEPAIVNAKNFGVPQNRERIYIVGFHKSTGVNSFSYPEPLDKIVTFADIREEKTVPTKYYLSTQYIDTLRKHKERHESKGNGFGYEIIPDDGIANAIVVGGMGRERNLVIDHRITDFTPTTNIKGEVNREGIRKMTPREWARLQGFPDSYVIPVSDASAYKQFGASVAVPAIQATGKKILEKLGNLYD
modifications: His6 tag
increase in transalkylation activity with synthetic AdoMet analogs as compared to the original His6 tagged variant: ~2 orders of magnitude
